From PMC4336329 (PLoS ONE, 2015)
Out of some 310,000 compounds screened, about 14,000 (4.5%) showed an effect of 50% or more. Effects have a minus sign here. This is one part of the list.

Target: human ether-à-go-go-related gene (hERG) potassium channel (human, UniProt Q12809)
Test: primary screen, population patch clamp on CHO cells stably expressing hERG
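Further: peak tail current of the secondary pulse compared with the same well before compound.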

human ether-à-go-go-related gene (hERG) potassium channel, sequence (Q12809 whole entry, looked up): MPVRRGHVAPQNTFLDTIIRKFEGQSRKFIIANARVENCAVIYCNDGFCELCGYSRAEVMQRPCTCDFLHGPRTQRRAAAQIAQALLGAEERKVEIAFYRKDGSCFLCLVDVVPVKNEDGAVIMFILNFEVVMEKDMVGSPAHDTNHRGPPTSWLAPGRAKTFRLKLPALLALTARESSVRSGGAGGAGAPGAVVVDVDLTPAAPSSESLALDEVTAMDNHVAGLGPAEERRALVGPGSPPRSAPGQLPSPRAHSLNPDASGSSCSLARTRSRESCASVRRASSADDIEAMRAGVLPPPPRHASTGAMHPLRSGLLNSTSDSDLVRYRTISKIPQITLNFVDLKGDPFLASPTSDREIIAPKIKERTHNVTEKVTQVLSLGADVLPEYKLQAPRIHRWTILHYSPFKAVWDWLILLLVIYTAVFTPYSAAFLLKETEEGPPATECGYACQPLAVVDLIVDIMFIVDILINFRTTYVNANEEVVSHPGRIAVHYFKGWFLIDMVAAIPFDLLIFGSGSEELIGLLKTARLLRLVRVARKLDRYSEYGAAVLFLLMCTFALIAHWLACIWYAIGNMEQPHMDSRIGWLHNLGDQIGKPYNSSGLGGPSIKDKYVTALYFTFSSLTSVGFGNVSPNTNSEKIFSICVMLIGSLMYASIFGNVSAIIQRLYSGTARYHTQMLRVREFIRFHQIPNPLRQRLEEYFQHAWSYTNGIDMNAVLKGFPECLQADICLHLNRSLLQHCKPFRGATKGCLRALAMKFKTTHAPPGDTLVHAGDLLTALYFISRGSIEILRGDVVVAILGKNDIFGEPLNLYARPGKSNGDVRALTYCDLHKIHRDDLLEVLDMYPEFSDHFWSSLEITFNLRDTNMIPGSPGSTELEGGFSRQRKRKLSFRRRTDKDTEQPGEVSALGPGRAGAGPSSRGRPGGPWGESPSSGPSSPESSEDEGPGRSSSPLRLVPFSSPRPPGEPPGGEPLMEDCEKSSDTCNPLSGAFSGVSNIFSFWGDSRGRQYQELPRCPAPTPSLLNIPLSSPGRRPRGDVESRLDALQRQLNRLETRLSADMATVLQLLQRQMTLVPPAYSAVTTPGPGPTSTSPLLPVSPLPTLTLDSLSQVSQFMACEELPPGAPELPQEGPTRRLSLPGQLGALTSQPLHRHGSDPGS

First: O=C(c1ccc2c(=O)n(-c3ccccc3)c(=O)[nH]c2c1)N1CCCCC1
Second: Cc1ccc(S(=O)(=O)N2CCCCC2)cc1C(=O)N1CCN(c2ccccn2)CC1
The “hERG current change (%, negative = inhibition) at 10uM” value of the first is higher: 4.98% for the first, -17.3% for the second.

Going from `CC(=O)c1ccc(N(CC(=O)NC2CCCC2)C(=O)CNC(=O)c2ccco2)cc1` to `O=C(CN(C(=O)c1csnn1)c1cccc(Cl)c1)NCCc1ccccc1`, the “hERG current change (%, negative = inhibition) at 10uM” value rises from 4.47% to 5.56%.

Going from `CCOC(=O)c1sc(N)c(C(=O)Nc2ccccc2)c1C` to `CCOC(=O)c1cc(C(=O)c2cc(Br)ccc2O)coc1=N`, the “hERG current change (%, negative = inhibition) at 10uM” value rises from -11.3% to -5.89%.

Compared with `CCCn1c(C2CCCN2c2nc(C)cs2)nc2cc(Cl)c(Cl)cc21` (stereo not drawn), `CCCS(=O)(=O)c1nc(S(=O)(=O)c2ccc(C)cc2)c(NCCCN2CCCC2=O)s1` is higher in “hERG current change (%, negative = inhibition) at 10uM” value: -46.9% for the first, -21.2% for the second.

Going from `Cc1cc(SCC(=O)O)nc2ccccc12` to `Cc1cccc(N=Nc2ccc(O)c3ncccc23)c1`, the “hERG current change (%, negative = inhibition) at 10uM” value falls from 26.8% to -8.51%.

First: CCc1ccc(N2C(=O)CN(Cc3cccs3)C2=S)cc1
Second: Cc1ccccc1S(=O)(=O)Cc1ccc(C(=O)NCc2cccs2)o1
The “hERG current change (%, negative = inhibition) at 10uM” value of the first is higher: 23.4% for the first, -21.7% for the second.

First: CCC1=NC(c2ccc(Br)cc2)N(O)C1(C)C (stereo not drawn)
Second: N#CC1=C(N)NC(SCC(=O)c2ccc(Br)cc2)=C(C#N)C12CCCCC2
The “hERG current change (%, negative = inhibition) at 10uM” value of the first is higher: 6.08% for the first, 1.36% for the second.

Compared with `CCOC(=O)N1CCN(S(=O)(=O)N2CCCC(C(=O)NCc3ccc(F)cc3)C2)CC1` (stereo not drawn), `COc1ccc(CCC(=O)NCCS(=O)(=O)N2CCN(c3ccc(OC)cc3)CC2)cc1` is higher in “hERG current change (%, negative = inhibition) at 10uM” value: -12.5% for the first, 7.57% for the second.

Compared with `O=C(/C=C/c1ccc(Cl)cc1)NCCCn1ccnc1`, `CC[C@H](C)[C@H](NC(N)=O)C(=O)NCCc1ccc(Cl)cc1` is higher in “hERG current change (%, negative = inhibition) at 10uM” value: -55.8% for the first, 8.3% for the second.

First: Cc1ccc(N2CCN(CCc3ccccc3)CC2)cc1
Second: CC(C(=O)NCCN1CCOCC1)(c1ccccc1)c1ccccc1.Cl
The “hERG current change (%, negative = inhibition) at 10uM” value of the first is lower: -36.2% for the first, -11% for the second.

Going from `CCNC(=S)N/N=C/c1ccc(F)cc1` to `COc1ccc(/C=N/NC(=O)CNC(=O)c2ccc3c(c2)OCCO3)cc1OC`, the “hERG current change (%, negative = inhibition) at 10uM” value falls from 15.9% to 6.17%.

First: COC(=O)c1sc(NC(=O)c2cc3c(s2)CCCC3)nc1C
Second: COc1ccc2nc(NC(=S)NC(=O)c3ccco3)sc2c1
The “hERG current change (%, negative = inhibition) at 10uM” value of the first is lower: -3.83% for the first, 25.2% for the second.

Going from `N#CCC(=O)NNC(=S)Nc1ccccc1C(F)(F)F` to `C[C@H](Nc1ccc(C(F)(F)F)cc1[N+](=O)[O-])C(=O)O.[Cl-]`, the “hERG current change (%, negative = inhibition) at 10uM” value falls from 13.7% to -1.93%.

Compared with `O=C(c1ccc(N2CCOCC2)cc1)c1cccs1`, `Cc1ccc(C2/C(=C(/O)c3ccccc3)C(=O)C(=O)N2CCN2CCOCC2)o1` (stereo not drawn) is higher in “hERG current change (%, negative = inhibition) at 10uM” value: -13.7% for the first, -2.22% for the second.

Going from `Cc1ccc(S(=O)(=O)N(C)CCCC(=O)N2CCOCC2)cc1` to `Cc1ccc(S(=O)(=O)N2CN3CCN(C3)C2)cc1`, the “hERG current change (%, negative = inhibition) at 10uM” value falls from 2.06% to -9.42%.

First: COc1ccc(C(=O)N/C(=C\c2cn(C)c3ccccc23)C(=O)NCCCN2CCOCC2)cc1
Second: COc1ccc(/C=C2/SC(=S)N(CCCC(=O)Nc3cccc(O)c3)C2=O)cc1
The “hERG current change (%, negative = inhibition) at 10uM” value of the first is lower: 4.94% for the first, 9.11% for the second.

Going from `CN(C)S(=O)(=O)c1cccc(NC(=O)c2ccccc2OCc2ccc(F)cc2)c1` to `COc1cccc(CN(C)C(=O)CN2C(=O)NC(c3ccccc3)(c3ccccc3)C2=O)c1OC`, the “hERG current change (%, negative = inhibition) at 10uM” value falls from 2.25% to -8.44%.

First: O=C(NCc1ccccn1)c1ccc2c(=O)n3nc(Nc4ccccc4)sc3nc2c1
Second: CN(C)c1nc(NCc2ccccc2)nc(N/N=C/c2ccc3c(c2)OCO3)n1
The “hERG current change (%, negative = inhibition) at 10uM” value of the first is higher: 11.3% for the first, 8.34% for the second.

Compared with `CCc1nnc(NC(=O)CSc2nnc3nc(C)cc(C)n23)s1`, `Cc1nc(NC(=O)CSc2nnnn2C)sc1C` is higher in “hERG current change (%, negative = inhibition) at 10uM” value: 10.8% for the first, 14.3% for the second.

First: Cc1ccc(-c2ccc(CCC(=O)O)n2-c2cccc(C(=O)O)c2)cc1
Second: Cc1ccc(NC(=O)Cn2cnc3c(cnn3C(C)(C)C)c2=O)cc1
The “hERG current change (%, negative = inhibition) at 10uM” value of the first is higher: 13.8% for the first, 7.16% for the second.

Going from `Cc1nccn1CC(=O)N/N=C/c1cc(Br)cs1` to `COc1ccc(/C=C2\SC(=O)N(CC(=O)Nc3ccc(O)cc3)C2=O)cc1OC`, the “hERG current change (%, negative = inhibition) at 10uM” value rises from 6.58% to 19.8%.

Going from `CCOc1ccc(NC(=O)CN(C)CC(=O)NC(C)c2ccccc2)cc1OCC` (stereo not drawn) to `CCCCc1ccc(NC(=O)N[C@H](C(=O)O)C(C)C)cc1`, the “hERG current change (%, negative = inhibition) at 10uM” value rises from 6.58% to 8.46%.

With `Cn1c(=O)c(=O)n(C)c2cc(S(=O)(=O)N3CCC(N4CCCCC4)CC3)ccc21` the “hERG current change (%, negative = inhibition) at 10uM” value was -3.6%.
